Test results from paper PMC11269665.
Results are given in words; binding and its absence hold for the method and conditions named. Binding seen in cells or lysates may run through a third protein. Some binding calls cover weakened binding; strength is not graded here. For some assays here: Sequences can lack the tags named with a protein.

The chains behind the UniProt entries cited, without tags or fusion partners.
UniProt Q9Y6K9: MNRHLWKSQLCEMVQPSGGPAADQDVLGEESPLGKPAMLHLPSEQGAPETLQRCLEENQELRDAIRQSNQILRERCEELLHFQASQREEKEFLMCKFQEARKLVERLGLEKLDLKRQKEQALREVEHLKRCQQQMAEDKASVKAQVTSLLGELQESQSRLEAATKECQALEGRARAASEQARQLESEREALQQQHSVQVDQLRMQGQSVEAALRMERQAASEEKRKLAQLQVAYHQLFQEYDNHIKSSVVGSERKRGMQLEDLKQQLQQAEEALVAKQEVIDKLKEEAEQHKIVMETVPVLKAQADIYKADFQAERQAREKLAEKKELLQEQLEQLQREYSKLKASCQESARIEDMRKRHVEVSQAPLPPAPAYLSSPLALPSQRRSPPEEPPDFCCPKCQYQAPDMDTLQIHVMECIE

B1: IKKα (endogenous), O15111 1-745 (protein)
chain: MERPPGLRPGAGGPWEMRERLGTGGFGNVCLYQHRELDLKIAIKSCRLELSTKNRERWCHEIQIMKKLNHANVVKACDVPEELNILIHDVPLLAMEYCSGGDLRKLLNKPENCCGLKESQILSLLSDIGSGIRYLHENKIIHRDLKPENIVLQDVGGKIIHKIIDLGYAKDVDQGSLCTSFVGTLQYLAPELFENKPYTATVDYWSFGTMVFECIAGYRPFLHHLQPFTWHEKIKKKDPKCIFACEEMSGEVRFSSHLPQPNSLCSLVVEPMENWLQLMLNWDPQQRGGPVDLTLKQPRCFVLMDHILNLKIVHILNMTSAKIISFLLPPDESLHSLQSRIERETGINTGSQELLSETGISLDPRKPASQCVLDGVRGCDSYMVYLFDKSKTVYEGPFASRSLSDCVNYIVQDSKIQLPIIQLRKVWAEAVHYVSGLKEDYSRLFQGQRAAMLSLLRYNANLTKMKNTLISASQQLKAKLEFFHKSIQLDLERYSEQMTYGISSEKMLKAWKEMEEKAIHYAEVGVIGYLEDQIMSLHAEIMELQKSPYGRRQGDLMESLEQRAIDLYKQLKHRPSDHSYSDSTEMVKIIVHTVQSQDRVLKELFGHLSKLLGCKQKIIDLLPKVEVALSNIKEADNTVMFMQGKRQKEIWHLLKIACTQSSARSLVGSSLEGAVTPQTSAWLPPTSAEHDHSLSCVVTPQDGETSAQMIEENLNCLGHLSTIIHEANEEQGNSMMNLDWSWLTE
B2: Flag-tagged KRT32 p.Arg203Cys (protein, UniProt Q14532 1-448)
chain: MTSSCCVTNNLQASLKSCPRPASVCSSGVNCRPELCLGYVCQPMACLPSVCLPTTFRPASCLSKTYLSSSCQAASGISGSMGPGSWYSEGAFNGNEKETMQFLNDRLASYLTRVRQLEQENAELESRIQEASHSQVLTMTPDYQSHFRTIEELQQKILCTKAENARMVVNIDNAKLAADDFRAKYEAELAMRQLVEADINGLCRILDDLTLCKADLEAQVESLKEELMCLKKNHEEEVGSLRCQLGDRLNIEVDAAPPVDLTRVLEEMRCQYEAMVEANRRDVEEWFNMQMEELNQQVATSSEQLQNYQSDIIDLRRTVNTLEIELQAQHSLRDSLENTLTESEARYSSQLAQMQCMITNVEAQLAEIRADLERQNQEYQVLLDVRARLEGEINTYRSLLENEDCKLPCNPCSTPSCTTCVPSPCVPRTVCVPRTVGMPCSPCPQGRY
B3: Flag-tagged KRT32 p.Glu303Lys (protein, UniProt Q14532 1-448)
chain: MTSSCCVTNNLQASLKSCPRPASVCSSGVNCRPELCLGYVCQPMACLPSVCLPTTFRPASCLSKTYLSSSCQAASGISGSMGPGSWYSEGAFNGNEKETMQFLNDRLASYLTRVRQLEQENAELESRIQEASHSQVLTMTPDYQSHFRTIEELQQKILCTKAENARMVVNIDNAKLAADDFRAKYEAELAMRQLVEADINGLRRILDDLTLCKADLEAQVESLKEELMCLKKNHEEEVGSLRCQLGDRLNIEVDAAPPVDLTRVLEEMRCQYEAMVEANRRDVEEWFNMQMEELNQQVATSSKQLQNYQSDIIDLRRTVNTLEIELQAQHSLRDSLENTLTESEARYSSQLAQMQCMITNVEAQLAEIRADLERQNQEYQVLLDVRARLEGEINTYRSLLENEDCKLPCNPCSTPSCTTCVPSPCVPRTVCVPRTVGMPCSPCPQGRY
B4: Flag-tagged KRT32 p.Cys229Arg (protein, UniProt Q14532 1-448)
chain: MTSSCCVTNNLQASLKSCPRPASVCSSGVNCRPELCLGYVCQPMACLPSVCLPTTFRPASCLSKTYLSSSCQAASGISGSMGPGSWYSEGAFNGNEKETMQFLNDRLASYLTRVRQLEQENAELESRIQEASHSQVLTMTPDYQSHFRTIEELQQKILCTKAENARMVVNIDNAKLAADDFRAKYEAELAMRQLVEADINGLRRILDDLTLCKADLEAQVESLKEELMRLKKNHEEEVGSLRCQLGDRLNIEVDAAPPVDLTRVLEEMRCQYEAMVEANRRDVEEWFNMQMEELNQQVATSSEQLQNYQSDIIDLRRTVNTLEIELQAQHSLRDSLENTLTESEARYSSQLAQMQCMITNVEAQLAEIRADLERQNQEYQVLLDVRARLEGEINTYRSLLENEDCKLPCNPCSTPSCTTCVPSPCVPRTVCVPRTVGMPCSPCPQGRY
B5: Flag-tagged KRT32 p.Ile313Val (protein, UniProt Q14532 1-448)
chain: MTSSCCVTNNLQASLKSCPRPASVCSSGVNCRPELCLGYVCQPMACLPSVCLPTTFRPASCLSKTYLSSSCQAASGISGSMGPGSWYSEGAFNGNEKETMQFLNDRLASYLTRVRQLEQENAELESRIQEASHSQVLTMTPDYQSHFRTIEELQQKILCTKAENARMVVNIDNAKLAADDFRAKYEAELAMRQLVEADINGLRRILDDLTLCKADLEAQVESLKEELMCLKKNHEEEVGSLRCQLGDRLNIEVDAAPPVDLTRVLEEMRCQYEAMVEANRRDVEEWFNMQMEELNQQVATSSEQLQNYQSDIVDLRRTVNTLEIELQAQHSLRDSLENTLTESEARYSSQLAQMQCMITNVEAQLAEIRADLERQNQEYQVLLDVRARLEGEINTYRSLLENEDCKLPCNPCSTPSCTTCVPSPCVPRTVCVPRTVGMPCSPCPQGRY
B6: Flag-tagged KRT32 p.Arg115Gln (protein, UniProt Q14532 1-448)
chain: MTSSCCVTNNLQASLKSCPRPASVCSSGVNCRPELCLGYVCQPMACLPSVCLPTTFRPASCLSKTYLSSSCQAASGISGSMGPGSWYSEGAFNGNEKETMQFLNDRLASYLTRVQQLEQENAELESRIQEASHSQVLTMTPDYQSHFRTIEELQQKILCTKAENARMVVNIDNAKLAADDFRAKYEAELAMRQLVEADINGLRRILDDLTLCKADLEAQVESLKEELMCLKKNHEEEVGSLRCQLGDRLNIEVDAAPPVDLTRVLEEMRCQYEAMVEANRRDVEEWFNMQMEELNQQVATSSEQLQNYQSDIIDLRRTVNTLEIELQAQHSLRDSLENTLTESEARYSSQLAQMQCMITNVEAQLAEIRADLERQNQEYQVLLDVRARLEGEINTYRSLLENEDCKLPCNPCSTPSCTTCVPSPCVPRTVCVPRTVGMPCSPCPQGRY
B7: His-KRT32 p.Arg203Cys (protein, UniProt Q14532 1-448)
chain: MTSSCCVTNNLQASLKSCPRPASVCSSGVNCRPELCLGYVCQPMACLPSVCLPTTFRPASCLSKTYLSSSCQAASGISGSMGPGSWYSEGAFNGNEKETMQFLNDRLASYLTRVRQLEQENAELESRIQEASHSQVLTMTPDYQSHFRTIEELQQKILCTKAENARMVVNIDNAKLAADDFRAKYEAELAMRQLVEADINGLCRILDDLTLCKADLEAQVESLKEELMCLKKNHEEEVGSLRCQLGDRLNIEVDAAPPVDLTRVLEEMRCQYEAMVEANRRDVEEWFNMQMEELNQQVATSSEQLQNYQSDIIDLRRTVNTLEIELQAQHSLRDSLENTLTESEARYSSQLAQMQCMITNVEAQLAEIRADLERQNQEYQVLLDVRARLEGEINTYRSLLENEDCKLPCNPCSTPSCTTCVPSPCVPRTVCVPRTVGMPCSPCPQGRY
B8: His-KRT32 p.Cys229Arg (protein, UniProt Q14532 1-448)
chain: MTSSCCVTNNLQASLKSCPRPASVCSSGVNCRPELCLGYVCQPMACLPSVCLPTTFRPASCLSKTYLSSSCQAASGISGSMGPGSWYSEGAFNGNEKETMQFLNDRLASYLTRVRQLEQENAELESRIQEASHSQVLTMTPDYQSHFRTIEELQQKILCTKAENARMVVNIDNAKLAADDFRAKYEAELAMRQLVEADINGLRRILDDLTLCKADLEAQVESLKEELMRLKKNHEEEVGSLRCQLGDRLNIEVDAAPPVDLTRVLEEMRCQYEAMVEANRRDVEEWFNMQMEELNQQVATSSEQLQNYQSDIIDLRRTVNTLEIELQAQHSLRDSLENTLTESEARYSSQLAQMQCMITNVEAQLAEIRADLERQNQEYQVLLDVRARLEGEINTYRSLLENEDCKLPCNPCSTPSCTTCVPSPCVPRTVCVPRTVGMPCSPCPQGRY
B9: His-KRT32 p.Arg115Gln (protein, UniProt Q14532 1-448)
chain: MTSSCCVTNNLQASLKSCPRPASVCSSGVNCRPELCLGYVCQPMACLPSVCLPTTFRPASCLSKTYLSSSCQAASGISGSMGPGSWYSEGAFNGNEKETMQFLNDRLASYLTRVQQLEQENAELESRIQEASHSQVLTMTPDYQSHFRTIEELQQKILCTKAENARMVVNIDNAKLAADDFRAKYEAELAMRQLVEADINGLRRILDDLTLCKADLEAQVESLKEELMCLKKNHEEEVGSLRCQLGDRLNIEVDAAPPVDLTRVLEEMRCQYEAMVEANRRDVEEWFNMQMEELNQQVATSSEQLQNYQSDIIDLRRTVNTLEIELQAQHSLRDSLENTLTESEARYSSQLAQMQCMITNVEAQLAEIRADLERQNQEYQVLLDVRARLEGEINTYRSLLENEDCKLPCNPCSTPSCTTCVPSPCVPRTVCVPRTVGMPCSPCPQGRY
B10: His-KRT32 p.Ile313Val (protein, UniProt Q14532 1-448)
chain: MTSSCCVTNNLQASLKSCPRPASVCSSGVNCRPELCLGYVCQPMACLPSVCLPTTFRPASCLSKTYLSSSCQAASGISGSMGPGSWYSEGAFNGNEKETMQFLNDRLASYLTRVRQLEQENAELESRIQEASHSQVLTMTPDYQSHFRTIEELQQKILCTKAENARMVVNIDNAKLAADDFRAKYEAELAMRQLVEADINGLRRILDDLTLCKADLEAQVESLKEELMCLKKNHEEEVGSLRCQLGDRLNIEVDAAPPVDLTRVLEEMRCQYEAMVEANRRDVEEWFNMQMEELNQQVATSSEQLQNYQSDIVDLRRTVNTLEIELQAQHSLRDSLENTLTESEARYSSQLAQMQCMITNVEAQLAEIRADLERQNQEYQVLLDVRARLEGEINTYRSLLENEDCKLPCNPCSTPSCTTCVPSPCVPRTVCVPRTVGMPCSPCPQGRY
B11: His-KRT32 p.Glu303Lys (protein, UniProt Q14532 1-448)
chain: MTSSCCVTNNLQASLKSCPRPASVCSSGVNCRPELCLGYVCQPMACLPSVCLPTTFRPASCLSKTYLSSSCQAASGISGSMGPGSWYSEGAFNGNEKETMQFLNDRLASYLTRVRQLEQENAELESRIQEASHSQVLTMTPDYQSHFRTIEELQQKILCTKAENARMVVNIDNAKLAADDFRAKYEAELAMRQLVEADINGLRRILDDLTLCKADLEAQVESLKEELMCLKKNHEEEVGSLRCQLGDRLNIEVDAAPPVDLTRVLEEMRCQYEAMVEANRRDVEEWFNMQMEELNQQVATSSKQLQNYQSDIIDLRRTVNTLEIELQAQHSLRDSLENTLTESEARYSSQLAQMQCMITNVEAQLAEIRADLERQNQEYQVLLDVRARLEGEINTYRSLLENEDCKLPCNPCSTPSCTTCVPSPCVPRTVCVPRTVGMPCSPCPQGRY

Molecular target: NEMO (endogenous) (human (endogenous in primary keratinocytes, Ker-CT and skin)), Q9Y6K9
Assay: proximity ligation; Duolink PLA of IKKα with NEMO on fixed Ker-CT cells overexpressing KRT32 wildtype or mutations; foci per cell counted
Conditions: remark: other sources report otherwise

binding, binds:
B1

Molecular target: NEMO (endogenous) (human (endogenous in primary keratinocytes, Ker-CT and skin)) (UniProt Q9Y6K9)
Assay: proximity ligation; Duolink PLA on fixed Ker-CT cells overexpressing Flag-tagged KRT32 wildtype or mutations; anti-Flag and anti-NEMO; foci per cell counted
Conditions: not given

binding, binds:
B2, B3, B4, B5, B6

Molecular target: GST-NEMO fusion protein (UniProt Q9Y6K9)
Assay: pull-down; GST-NEMO fusion protein incubated with E. coli extracts containing WT or mutant His-KRT32; glutathione-agarose beads; Western blot; only the target purified
Conditions: not given

binding, binds:
B7, B8, B9, B10, B11
